Experimental findings from the RNAGym collection of RNA variant scans (doi:10.1073/pnas.2313332121) are described below.

Variants at the background level are over-represented here. A value given as a limit tells only on which side of the number the result lay.

Sequences and labels used below:
B1: TPR 5TU (parent)
chain: GGAUCUUCUCGAUCUAACAAAAAAGACAAAUCUGCCACAAAGCUUGAGAGCAUCUUCGGAUGCAGAGGCGGCAGCCUUCGGUGGCGCGAUAGCGCCAACGUUCUCAACUAUGACACGCAAAACGCGUGCUCCGUUGAAUGGAGUUUAUCAUG

In this data set the parent is B1. Briefly: polymerase ribozyme fitness, log enrichment relative to wild type (log ratio); higher = more active; in vitro selection for triplet polymerase activity. The gist of the method:
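Mutant libraries of both subunits of a heterodimeric triplet polymerase ribozyme were PCR-built, transcribed, and selected once in triplicate, with frozen incubation at −7 °C and capture of gel-excised extended constructs on streptavidin beads before RT-PCR. Illumina sequencing of input and output libraries was filtered to genotypes with ≥10 input reads and ≥1 read per output. Fitness is the logarithm of genotype enrichment over wild-type enrichment, using inverse-variance-weighted replicate averages. The logarithm is base 2.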
Consider A3G C8U A52C G83U C87U, for which the “polymerase ribozyme fitness (log ratio)” value was at most -4.2.

For the variant A3C C85U G136C, the “polymerase ribozyme fitness (log ratio)” value is -3.76. As for U4A A23U A29U U53A G59A A60G C87U G126U U134C U148G, the “polymerase ribozyme fitness (log ratio)” value is at most -4.2. Consider A3G G50A U77A G88A, for which the “polymerase ribozyme fitness (log ratio)” value was at most -4.2. Under A3U U7C A52C C95U C99U stands at most -4.2; under U4A C10U A26U U31G A39G C57A C85A U90G A113C, at most -4.2; under A3G A20C A49U C54U G92A, at most -4.2. Under A3U U77C U82G A91G A98G U148C stands at most -4.2.

Turning to U4A U9G G48A U56A C72U C93U A115G, the “polymerase ribozyme fitness (log ratio)” value was at most -4.2. With A3U G48A A49C U111C G136C, the “polymerase ribozyme fitness (log ratio)” value is at most -4.2. As for A3U A21G C51U U56A A91C G94A U104G A115G U135A, the figure is at most -4.2; as for U4A G11U A16G A29U A39U A49G G94A C116U C125A A150C, at most -4.2; as for U4A U6A A17U A30U C105U U134G, at most -4.2. As for A3U C27G C38U G48U G58U C79G G92A C105U G117U G143U, the figure is at most -4.2; as for A3U A26U C57U C108U C125A A147C U148G, at most -4.2. As to A3C C38U U55G C85G G92U, the “polymerase ribozyme fitness (log ratio)” value was at most -4.2. As for A3U A30C G48A C54U C87U, the figure is at most -4.2; as for A3G G67U A89C C96G A106C A119C, at most -4.2. Under A3G A17C A49C C51U C76A G81A G92A A113C C118G G140C G141U stands at most -4.2; under A3C U13G A20U U53A A73G C93A C125A A138G U139A G140C, at most -4.2.

For A3C G141U, the “polymerase ribozyme fitness (log ratio)” value came to 0.471. As for A3G C8G A23C C54A G80C G81A A89U C93G, the figure is at most -4.2; as for A3G C5G C27U U31C U44A G58C C75A C87U A91C G117A, at most -4.2; as for A3U A66U C85A A150U, at most -4.2. Consider A3U A26G A28U A29C G58U G88C, for which the “polymerase ribozyme fitness (log ratio)” value is at most -4.2.

Consider A3U A47U G71C C85A C103A, for which the “polymerase ribozyme fitness (log ratio)” value was at most -4.2. As for A3U A23G A89U A98U, the figure is at most -4.2; as for A3U C14U A47C U53A C85U C99U, at most -4.2. As for A3G C18G C87U A91U U139C, the figure is at most -4.2; as for A3C G34C G48C A106U A138G A150G, at most -4.2. For the variant U4A G86A C87A, the “polymerase ribozyme fitness (log ratio)” value was at most -4.2. Under A3C C54G C76A stands at most -4.2; under A3U G42C C43G G88U C123A, at most -4.2. As for U4A U15C A20C A40U A47C A64G G74A G92U C118U, the figure is at most -4.2.

Regarding U4A A19C, the “polymerase ribozyme fitness (log ratio)” value came to 0.332. Consider U4C A20U A29U G70U C99G C108G, for which the “polymerase ribozyme fitness (log ratio)” value was at most -4.2. Consider A3U C38U C96U G126U G143A, for which the “polymerase ribozyme fitness (log ratio)” value was at most -4.2.

On to U4C A12U A21G G59A C85G G124U, for which the “polymerase ribozyme fitness (log ratio)” value was -2.83. Under A3C C87G A98U C131A stands at most -4.2. As for U4A A22U A40G U145A, the figure is -3.05; as for A3U A17C A47U C93U U104A, -1.38. Under A3U C108U stands -3.59. Consider A3U G34A C75U G86U, for which the “polymerase ribozyme fitness (log ratio)” value is at most -4.2. As for A3G A91U C103G A110C G133C U145G, the figure is at most -4.2; as for A3U A64C G68A C87A, at most -4.2. With U4C A20U A40U A60G C85A C108G C116U, the “polymerase ribozyme fitness (log ratio)” value is at most -4.2.

With U4A A21G U55G U101G G152A, the “polymerase ribozyme fitness (log ratio)” value was at most -4.2. As for A3U A26U A29U A49C C87U C114U G141A, the figure is at most -4.2; as for A3G A20C C38U A41C C57A A60C C79A A89U, at most -4.2; as for A3U G59A U61A C79U G83A A121C, at most -4.2. Under A3U G143U stands -2.76; under A3C C32U C43U U44A U55G G81A C87A, at most -4.2; under A3U A66G C85U C96A, at most -4.2. Under U4C A16U G83U U90C A113U U148C stands at most -4.2; under A3C U61A G84A G92A A120C, at most -4.2.

As for A3G A26C C57G G65U C131A, the “polymerase ribozyme fitness (log ratio)” value is at most -4.2. Under A3U U7G A28U U31G A37U G81A A89G A122G stands at most -4.2; under A3G C36U U45G A107U U109C, at most -4.2.

Regarding A3U C43A U45A A47U G59C C125U U130C A137G, the “polymerase ribozyme fitness (log ratio)” value was at most -4.2. For the variant A3C C79U C93U C95U, the “polymerase ribozyme fitness (log ratio)” value is at most -4.2.

As to A3U G42C U44A G86A C103G C132U, the “polymerase ribozyme fitness (log ratio)” value was at most -4.2. With A3U C14G A20G A40C U55A C63G G67C G83A A106C, the “polymerase ribozyme fitness (log ratio)” value was at most -4.2. Under A3U A64C A73G G81C A115G stands at most -4.2; under A3U U6G A30C U53A G92A C125A C132G, at most -4.2. Under A3U C54A stands -2.21; under U4C A23C A37G U53A, at most -4.2; under A3U C79G G83C U127A C149A, at most -4.2.

In the case of A3U G11U C54U C57U G140U, the “polymerase ribozyme fitness (log ratio)” value is at most -4.2. As for A3U A37U U56A A97U, the figure is -3.82; as for U4A C79A C123U U148C, at most -4.2; as for A3U A24G A26C A60G G83A, at most -4.2. Under A3G A12G A17G C54U C76A G86A C105G C108A A113U C149A stands at most -4.2; under A3U A21C C32U A37U G58A A89C C95A A137G, at most -4.2; under A3G U15C C93G U146G, -2.23.

A3U U6C A23C G68C C76A C85A G117U: the “polymerase ribozyme fitness (log ratio)” value is at most -4.2. Under A3G A52G G84U A106G A107G A119U U145C stands at most -4.2; under A3U G42C C57U G84U, at most -4.2. As for A3G C27U G74A C85A A122U U135G, the figure is at most -4.2.

Regarding A3G A39C G50A G86A U145G, the “polymerase ribozyme fitness (log ratio)” value was at most -4.2. As for A3U U4A A19G G42A A47G C57A G84A, the figure is at most -4.2; as for U4C A52G G58U, -0.303; as for A3C U9C C35G A52G U53A C75U A91U C114A, at most -4.2. As for A3U A49G G84C, the figure is -3.89. Under A3G U33C G58C C116G U139A G141U U146C stands at most -4.2.
